The source gives no read counts; variants with many changes may rest on few reads.
B1: LINE1-mini (parent)
chain: GGCAGAGCUCAACACAGCGUGGCAAAGUGGCUGUGGCUAGACUGCC

Variants of: B1
Test: self-cleavage, relative activity (ratio to wild type); higher = more cleavage; in vitro, sequencing; the parent is a self-cleaving ribozyme
Variant CGCAGAGCUCACCACAGCGUGGCAAAUUGGCUGUGUCUGGACUGCC [G1C A12C G27U G36U A39G] has a self-cleavage of 0.01.
AGCAGAGCUCAACACAGCGUUGCAAAGUGGCUGUGGGUAAACUGCC [G1A G21U C37G G40A] showed a self-cleavage of 0.03.
For AGCAGAGCUCAACACAGCGCGGCACAGUGGCUGUGGCUAGACUGCC [G1A U20C A25C], the self-cleavage was 0.32.
Work on AGCAGAGCUCAACACAGCGUGACAAAGUGGCUGUGGCUAGACUACC [G1A G22A G44A] yielded a self-cleavage of 0.64.
AGCAGAGCUCAACACAGCGUGGCAAACUGUCUGUGGCUAGACUGCC [G1A G27C G30U] showed a self-cleavage of 0.19.
AGCAGAGCUCAACACAGCGCGGCAAAGUGGUUGUGGGUAGACUGCC [G1A U20C C31U C37G] gave a self-cleavage of 0.01.
Variant CGCGGAGGCCAACACAGCGUGGCAAAGUGGCUGUGGCUAGACUGCG [G1C A4G C8G U9C C46G] has a self-cleavage of 0.04.
Variant AGCAGAGCUCAACACAGCCUUGCAACGUGGCUGUGGCUAGACUGCC [G1A G19C G21U A26C] has a self-cleavage of 0.47.
Variant AGCAGAGCUCAACACAGCGUGGCAAAGUUGUUGUGGCUAGAAUGCC [G1A G29U C31U C42A] has a self-cleavage of 0.03.
For CGCAGAGCUCAACACCGCAUGGCAAAGUGGGUGUGGCUAGACUGCC [G1C A16C G19A C31G], the self-cleavage was 0.
AGCAGAGCUCAACACAGCGUGUCAAAGUGGCUGUCGCUAGAGUGCA [G1A G22U G35C C42G C46A] showed a self-cleavage of 0.02.
For AGCAGAGCGCAACACAGCGUGGCAAAGUGGCUGUGGCUAGACCGCC [G1A U9G U43C], the self-cleavage was 0.04.
Variant CGCCGAGCUCAACACAGCGUGGCAUAGUGGCUGUGGCUACAAUGCC [G1C A4C A25U G40C C42A] has a self-cleavage of 0.01.
CGCAGUGUUCAACUCAGCGUGUCAAAGUGGCUGUGGCUAGACUGCG [G1C A6U C8U A14U G22U C46G] showed a self-cleavage of 0.07.
CGCAGAGCUCGACACAGCGUGGCAAAGUGGAUGUGGCUAGACUGCC [G1C A11G C31A] gave a self-cleavage of 0.01.
Work on AGCAGAGCUCAACACAGCGUGGCAAAGUGUCUGUGGCUAGACCGCU [G1A G30U U43C C46U] yielded a self-cleavage of 0.06.
Work on AGCAGAGCUCAACACAGCGUGGCAAAGUGACUGUGGCUAGACUGUC [G1A G30A C45U] yielded a self-cleavage of 0.55.
AGCAGAGCUCAACACAGCGUCGCAAAGUGGCUUUGGCUAGACUACU [G1A G21C G33U G44A C46U] gave a self-cleavage of 0.03.
Work on AGCAGAGCUCAACACAGCGUGGCAAACCGGCUGUGGCUAGACUACC [G1A G27C U28C G44A] yielded a self-cleavage of 0.01.
AGCAGAGCACAACACAGCGUGGCAAUGUGGCUGUGGCUAGACUGCC [G1A U9A A26U] showed a self-cleavage of 0.04.
With AGCAGAGCGCAACACAGCGUGGCAAAGUGGCUGUGGCUAUACAGCC [G1A U9G G40U U43A] the self-cleavage was 0.05.
AGCAGAGCUCAACACAGCGUCGCAAAGUGGUAGUGGCUAGACUGCC [G1A G21C C31U U32A] gave a self-cleavage of 0.09.
Variant CGCAGUGCUCAACACUGCGUGGCAAAGUGGCUGUGGCUAGACUGCC [G1C A6U A16U] has a self-cleavage of 0.01.
AGCAGAGCUCAACACAGCGUGGCAAAGUGGCUGUGGCAAGACAGCC [G1A U38A U43A] gave a self-cleavage of 0.07.
CGCCGAUCUCAACACACCGAUGCAAAGUGGCUGUGGCUAGACUGCC [G1C A4C G7U G17C U20A G21U] showed a self-cleavage of 0.31.
AGCAGAGCUCAACACAGCGUGCCAGAGUGGCUGUGGCUCGACUGCC [G1A G22C A25G A39C] gave a self-cleavage of 0.04.
With AGCAGAGCUCAACACAGCUUGGCAAAGUGGCUGUGGCUAGGCUCCC [G1A G19U A41G G44C] the self-cleavage was 0.07.
CGCAGCGCUCAACACAGCGUGGCAGAGUGGCUGAGGCUAGACUGCC [G1C A6C A25G U34A] gave a self-cleavage of 0.01.
With AGCAGAGCUCAACACAGCGUGACAAAGUGGCUGUGGCUAGACUGCG [G1A G22A C46G] the self-cleavage was 1.36.
CGCGGAGCUCAACACAGCGAGGCAAAGUGGCUGUGGCUAGACUGCC [G1C A4G U20A] gave a self-cleavage of 0.02.
For CGCAGGACUCAACACAGCGUGGCAAAGUGGCUGUGGCUAGACUGCC [G1C A6G G7A], the self-cleavage was 0.
In the case of CGCAGUGAUCAACACAGCGUGGCAAAGUGUCUGCGGCUAGACUGCC [G1C A6U C8A G30U U34C], the self-cleavage is reported as 0.06.
With CGCUGAGCUCAACACAGCGAGGCAAAGUGGCUGUGGCUAGCCUGCC [G1C A4U U20A A41C] the self-cleavage was 0.02.
Variant AGCAGAGCUCAACACAUCGUGGCAAAGUGGCUGUCACUAGACUGCC [G1A G17U G35C G36A] has a self-cleavage of 0.04.
AGCAGAGCCCAACACAGCGUGGCAAAGUGGCGGUGGCUAGCCUGCU [G1A U9C U32G A41C C46U] showed a self-cleavage of 0.05.
With CGCAGAGCUCAUCACAGCGUGGCAAAGUGUCUGUGGCUAGACUGCC [G1C A12U G30U] the self-cleavage was 0.05.
CGCAGGGCUCAACACAGAGUGGCAAACUGGCUGUGGCUAGACUGCC [G1C A6G C18A G27C] gave a self-cleavage of 0.
Work on CGCAGAGCUCAACACUGCGUAGCAAAGUGGCUGUGGCUAGACUGCC [G1C A16U G21A] yielded a self-cleavage of 0.04.
For AGCAGAGCUCAACACAGCGUGACAAAGUGGCAGUGGCUAGACCGCC [G1A G22A U32A U43C], the self-cleavage was 0.02.
For AGCAGAGCUCAACACAGCGGGGUAAAGUCGGUGUGGCUAGCCUGCC [G1A U20G C23U G29C C31G A41C], the self-cleavage was 0.02.
CGCCGAGCUCAACACAGAGUGGUAAAGUGGCUGUGGCUCGACUGCC [G1C A4C C18A C23U A39C] showed a self-cleavage of 0.02.
AGCAGAGCUCAACACAGCGUGACAAAGUCGCUGUGGCUAGACUGCC [G1A G22A G29C] showed a self-cleavage of 2.84.
AGCAGAGCUCAACACAGCGUUGCCAAGUGGCUGUGGCUAGACUCCC [G1A G21U A24C G44C] gave a self-cleavage of 0.18.
Variant CGCCGAGCUCAACACAGCGUGGCGAAGUGGGUGUGGCUAGACUGCC [G1C A4C A24G C31G] has a self-cleavage of 0.02.
For CGCCGAGCUCAACACAGCGUGGCAAAUUGGCUGUGGCUAGAGUGCC [G1C A4C G27U C42G], the self-cleavage was 0.03.
Variant CGCAGAGCUCCACACAGCGUGUCAAAGUGGCUGUGGCUGGACUGCC [G1C A11C G22U A39G] has a self-cleavage of 0.
Work on AGCAGAGCCCCACACAGCGUGGCAACGUGGCUGUCGCUAGACUGCC [G1A U9C A11C A26C G35C] yielded a self-cleavage of 0.
Work on AGCAGAGCUCAACACAGCAUGGCAAAGUGGCUGAGGCAAUUCUGCC [G1A G19A U34A U38A G40U A41U] yielded a self-cleavage of 0.06.
Work on CGCGGAGCUCAACACAGCGUGGCAUAGUGGCUGUGGCUAGACUGCC [G1C A4G A25U] yielded a self-cleavage of 0.02.
AGCAGAGCACAACAUGGCGUGGCAAAGUAGCUGUGGCUAGACUGCC [G1A U9A C15U A16G G29A] showed a self-cleavage of 0.24.
In the case of AGCAGAGCUCAACACAGCGGGGCAAAGUUACUGUGGCUAGACUGCC [G1A U20G G29U G30A], the self-cleavage is reported as 0.25.
AGCAGAGCUCAACACAGCGUGGCAAAGGGGCUGGGGCUAGACUGCC [G1A U28G U34G] gave a self-cleavage of 0.06.
With CGCAGCGCUCAACACAGCGUGGCAAAGUGGCUGAGGCUAGACUGCC [G1C A6C U34A] the self-cleavage was 0.01.
In the case of CGCAGAGCUCAACACUACGUGGCAAAGUGGGUGUGGCUAGACUGCC [G1C A16U G17A C31G], the self-cleavage is reported as 0.02.
For CGCUGAGCUCGACACAGCGUGGCAAAGUGCCUGUGGCUAGACUGCC [G1C A4U A11G G30C], the self-cleavage was 0.01.
Variant CGCAGUGCUCAACACCGCGUGUGAAAGUGGCUGUGGCUAGACUGCC [G1C A6U A16C G22U C23G] has a self-cleavage of 0.01.
